# About 3,600 (1.6%) of roughly 230,000 compounds were called active. Inconclusive results, whose numbers are uncertain, are shown with a selection of clear calls. Calls come from the whole dose curve; as a rule, active = well fitted inhibition curve with a large enough effect (not every such curve was filed as active); inconclusive = small, poorly fitted or top-dose-only effect, or another doubt; inactive = no such curve, though single readings can be large or run the other way. Potencies beside an inconclusive call are fits to weak or partial responses and may not hold up. More than one record can exist for a structure, and the calls need not agree.
# Target: Lysine-specific demethylase 4E (Homo sapiens) (UniProt B2RXH2)
# Sequence of UniProt B2RXH2 (B2RXH2 whole entry, looked up, the tested form may be a part): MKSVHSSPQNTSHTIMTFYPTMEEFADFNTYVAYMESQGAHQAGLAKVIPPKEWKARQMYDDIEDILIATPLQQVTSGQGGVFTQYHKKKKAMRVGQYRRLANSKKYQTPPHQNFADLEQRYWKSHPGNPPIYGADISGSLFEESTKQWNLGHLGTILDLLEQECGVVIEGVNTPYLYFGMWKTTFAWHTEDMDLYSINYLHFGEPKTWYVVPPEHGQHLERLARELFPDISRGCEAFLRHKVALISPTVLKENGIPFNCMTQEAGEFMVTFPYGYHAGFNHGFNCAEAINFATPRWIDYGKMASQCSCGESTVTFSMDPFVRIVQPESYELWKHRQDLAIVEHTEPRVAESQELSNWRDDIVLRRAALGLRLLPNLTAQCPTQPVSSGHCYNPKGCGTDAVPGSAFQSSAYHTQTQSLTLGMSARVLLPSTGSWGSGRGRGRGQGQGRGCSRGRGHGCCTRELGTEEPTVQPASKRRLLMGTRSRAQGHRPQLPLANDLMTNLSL
# Assay: qHTS Assay for Inhibitors of Human Jumonji Domain Containing 2E (JMJD2E)
# Conditions: JMJD2E catalytic domain, FDH-coupled NADH fluorescence (FDH is formaldehyde dehydrogenase); series mostly up to 57.1 µM
# Note: nearly all actives have a fitted effect of over 50% in size.
# Potency is the fitted concentration of half-maximal effect; tags give direction and shape of the fitted curve.
row,Compound,Potency
1,Cc1cc(-c2ccccc2)nc2cc(C(=O)N(Cc3ccccc3)Cc3ccccc3)nn12,"inconclusive: 28.2 µM [inhibitor, partial curve]"
2,CCCCN1C(=O)CC(C(=O)O)C1c1ccc(OC)cc1 (stereo not given),inactive
3,COc1ccc(CNCc2cn(-c3cccc(F)c3)nc2-c2ccc(C)o2)cc1,"inconclusive: 28.2 µM [inhibitor, partial curve]"
4,O=C(c1ccc(=O)oc1)N1CCN(c2ccc(F)cc2)CC1,"inconclusive: 28.2 µM [inhibitor, partial curve]"
5,CCCCC(=O)Nc1ccc(C(=O)Nc2ccc(S(=O)(=O)N3CCCC3)cc2)cc1,"inconclusive: 22.4 µM [inhibitor, partial curve]"
6,CCOC(=O)COc1ccc2c(c1)C(=O)CC(C)(c1cccnc1)O2 (stereo not given),"inconclusive: 31.6 µM [inhibitor, partial curve]"
7,Cc1ccccc1C(=O)N=c1c(C#N)cc2c(=O)n3cccc(C)c3nc2n1Cc1ccco1,"inconclusive: 28.2 µM [inhibitor, partial curve]"
8,CCOC(=O)c1oc2ccccc2c1CN1CCCCC1,"inconclusive: 39.8 µM [inhibitor, single point]"
9,O=C(c1cncc(Br)c1)N1CCN(c2ccc(N3CCOCC3)nn2)CC1,"inconclusive: 28.2 µM [inhibitor, partial curve]"
10,COc1cc(CNc2ccc(N3CCCC3)cc2)ccc1OCc1ccccc1,active: 6.31 µM
11,O=C1COc2ccc(C(=O)COC(=O)Cc3ccc(Cl)cc3)cc2N1,"inconclusive: 28.2 µM [inhibitor, single point]"
12,CCOC(=O)c1cc2cc(C)ccc2[nH]1,"inconclusive: 31.6 µM [inhibitor, partial curve]"
13,CC(C)CC(=O)Nc1cc2nn(-c3ccccc3)nc2cc1Cl,"inconclusive: 3.98 µM [inhibitor, full curve]"
14,Cn1c(-c2ccc(Br)o2)nc2cc(Br)ccc21,inactive
15,CCOC(=O)c1c(C)nc2sc(C(=O)Nc3ccc(C(C)=O)cc3)c(N)c2c1-c1ccc(OC)cc1,"inconclusive: 31.6 µM [inhibitor, partial curve]"
16,COc1ccc(C(=O)O)cc1S(=O)(=O)N(C)CCc1ccccn1,inactive
17,COc1ccc(S(=O)(=O)NN(C)C)cc1N(C)S(=O)(=O)c1ccc(Cl)cc1,"inconclusive: 35.5 µM [inhibitor, partial curve]"
18,COc1ccc2c(c1)CCc1c(C(=O)NCc3ccc(F)cc3)noc1-2,inactive
19,Cc1cc(C)nc(SCNC(=O)c2ccccc2)n1,inactive
20,c1ccc(Cn2c(-c3cccs3)nc3nc4ccccc4nc32)cc1,"inconclusive: 1.78 µM [inhibitor, partial curve]"
21,COc1ccc(/C=C/C(=O)Nc2cccnc2)cc1OC,"inconclusive: 28.2 µM [inhibitor, partial curve]"
22,CC(=O)c1ccc(NC2c3ncccc3C(=O)N2Cc2ccc(F)cc2)cc1 (stereo not given),"inconclusive: 22.4 µM [inhibitor, single point]"
23,Cc1cccc(-n2nnnc2SCC(=O)Nc2cccc(S(N)(=O)=O)c2)c1,inactive

row,Compound,Potency
1,CCCCN(C(=O)Cn1nnc2ccccc21)C(C(=O)NCc1ccco1)c1ccncc1 (stereo not given),"inconclusive: 35.5 µM [inhibitor, single point]"
2,Cc1ccc(SCC(=O)Nc2ccc(-c3nc4ccccc4[nH]3)cc2)cc1,"inconclusive: 17.8 µM [inhibitor, partial curve]"
3,COc1ccccc1N=CC=C1OC(C)(C)C(C)(C)O1,"inconclusive: 22.4 µM [inhibitor, partial curve]"
4,O=C(COc1ccccc1Br)NCc1ccco1,"inconclusive: 39.8 µM [inhibitor, single point]"
5,Cc1ccc(CNC(=O)c2ccc(-n3cccc3)cc2)cc1,inactive
6,COc1ccc(CNc2ccc3cn[nH]c3c2)c(OC)c1OC,"inconclusive: 31.6 µM [inhibitor, partial curve]"
7,COc1cccc(N=C2C(=O)N3CCCc4cccc2c43)c1,inactive
8,COc1ccc(CCN(Cc2ccccn2)C(=S)Nc2cccc(SC)c2)cc1OC,inactive
9,COc1ccc(/C=N/NC(=O)CNC(=O)c2ccc3c(c2)OCCO3)cc1OC,"inconclusive: 35.5 µM [inhibitor, single point]"
10,COc1ccc(Cl)cc1NC(=O)CN(C)CC(=O)Nc1ccccc1-c1ccccc1,"inconclusive: 35.5 µM [inhibitor, single point]"
11,O=C(N/N=C/c1cccs1)c1cc(-c2ccc3ccccc3c2)n[nH]1,"inconclusive: 39.8 µM [inhibitor, single point]"
12,O=S(=O)(c1ccc2oc(=S)[nH]c2c1)N1CCCCC1,inactive
13,Cc1ccc2c(c1)c1ccc3c(c1n2C)C(=O)C=CC3=O,"inconclusive: 39.8 µM [inhibitor, single point]"
14,FC(F)(F)c1cccc(N2CCc3cn[nH]c32)c1,"inconclusive: 8.91 µM [inhibitor, full curve]"
15,CCCCC1=CC2=CC(=O)C(C)(OC(=O)CC)C(=O)C2=CN1c1ccccc1 (stereo not given),active: 25.1 µM
16,COc1cccc(-c2nc(-c3ccccc3)[nH]c(=O)c2C#N)c1,inactive
17,CC1Sc2ccc(Cl)cc2-c2nc(N)ncc21 (stereo not given),"inconclusive: 25.1 µM [inhibitor, single point]"
18,COC(=O)COc1ccc(C2Nc3c(Cl)ccc(C(=O)O)c3C3C=CCC32)cc1 (stereo not given),"inconclusive: 22.4 µM [inhibitor, single point]"
19,CCCC(=O)Nc1nc2ccc(NC(=O)c3ccccc3F)cc2s1,"inconclusive: 35.5 µM [inhibitor, single point]"
20,CCN(CC)S(=O)(=O)c1ccc(N/N=C/c2ccc(O)cc2)nc1,"inconclusive: 31.6 µM [inhibitor, partial curve]"
21,COc1ccc(NS(=O)(=O)c2cc(NC(=O)c3cc(F)c(F)c(F)c3F)ccc2N2CCCC2)cc1,"inconclusive: 39.8 µM [inhibitor, single point]"
22,Cc1cc(C)c2c(n1)nn1c(N3CCN(c4ccccc4)CC3)cc(C)nc21,"inconclusive: 5.01 µM [inhibitor, full curve]"

# Reference: PubChem BioAssay AID2147 (National Center for Advancing Translational Sciences (NCATS), 2009)
